Experimental data reported in PubChem BioAssay AID686970 (National Center for Advancing Translational Sciences (NCATS), 2013).
Screen size: about 360,000 compounds; about 6,000 (1.7%) were called active. The shares of active, inactive and inconclusive entries below differ from those in the screen. Calls follow the shape of the dose curve; as a rule, active = well fitted cell-killing curve with a large enough effect; inconclusive = small, poorly fitted or top-dose-only effect, or effect the other way; inactive = flat fitted curve, though single readings scatter. Potencies of inconclusive entries are left out as doubtful fits.

Assay: qHTS for induction of synthetic lethality in tumor cells producing 2HG: qHTS for the HT-1080-NT fibrosarcoma cell line;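 also: NT is the 2HG producing partner of a matched IDH1 knockdown line; nearly all actives have a fitted effect of over 55% in size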;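 as to activity, negative = less viability: 0% = DMSO-treated cells and -100% = media-only wells without cells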
Details: HT-1080-NT fibrosarcoma viability, CellTiter-Glo ATP luminescence, 48 h; activity, negative = less viability: at 46.1 µM (top of the series) unless noted
Outline: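 Fibrosarcoma NT cells, 750 per well in 5% FBS RPMI, were exposed to compound for 48 hours. Viability: CellTiter-Glo luminescence.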
Potency is read from the fitted curve at half-maximal effect; tags tell the direction and shape of the fitted curve.

Row | Structure (SMILES) | Potency | activity, negative = less viability
1 | O=C(C[C@H]1C/C=C\C[C@H](NC(=O)OCC2c3ccccc3-c3ccccc32)C(=O)OC[C@H]2CCCN2C1=O)NCCO | inactive | 
2 | C[C@H](c1ccccc1)N1C[C@@H](COCc2ccccc2)Oc2cc(N3CC[C@H](O)C3)ccc2S1(=O)=O | inconclusive [cytotoxic, single point] | 
3 | N#CC1=C(Nc2ccccc2)SC=C(c2ccccc2)N=C1N1CCOCC1 | inactive | 
4 | Cc1ccc2c(c1)nnn2C1CCN(S(=O)(=O)c2ccc(C(=O)N3C(C)CCCC3C)cc2)CC1 (stereo not drawn) | inconclusive [cytotoxic, single point] | 
5 | COc1ccc(C(=O)N[C@H](C(=O)Nc2cccc(S(=O)(=O)N3CCOCC3)c2)C(C)C)cc1 | inactive | 
6 | CCOC(=O)C1(S(=O)(=O)c2ccc(Cl)cc2)CCN(Cc2ccc(C)cc2)CC1 | inconclusive [cytotoxic, single point] | 
7 | C[C@H](NC(=O)OC(C)(C)C)c1nnc(SCC(=O)Nc2cccc(Cl)c2)o1 | inconclusive [rising, single point] | 
8 | N#Cc1c(NC(=O)c2ccc([N+](=O)[O-])o2)sc2c1CCC2 | inconclusive [cytotoxic, single point] | 
9 | CN(CCC#N)C(=S)Nc1ccc(Oc2ccccc2)cc1 | inactive | 
10 | Cc1cc(C[n+]2ccccc2)c2nsnc2c1 | inconclusive [cytotoxic, single point] | 
11 | CCCOc1ccc(C2C3=C(CCCC3=O)N(CC(=O)O)C3=C2C(=O)CCC3)cc1OCC | inactive | 
12 | COc1ccc(Br)cc1CN1CCN(Cc2c[nH]c3ccccc23)CC1 | inconclusive [cytotoxic, single point] | 
13 | O=C(c1ccc2c(c1)OCO2)C1CCCN(Cc2ccccc2OC(F)F)C1 (stereo not drawn) | inconclusive [cytotoxic, partial curve, poor fit] | 
14 | O=C(NCCCO)C(=O)Nc1cc2c3c(c1)CCC(=O)N3CCC2 | inactive | 
15 | Cc1ccc(S(=O)(=O)N(CC(=O)NCCC2=CCCCC2)Cc2ccccc2)cc1 | inconclusive [cytotoxic, single point] | 
16 | O=C(Cc1csc(Nc2nc(=S)[nH]c3ccccc23)n1)NCCCN1CCN(c2ccccc2F)CC1 | active: 20.6 µM | 
17 | O=C1CCCN1c1ccc(S(=O)(=O)Nc2ccc3c(c2)OCCO3)cc1 | active: 5.01 µM | 
18 | Cc1cc(C)c(C)c(/C=C(/C#N)C(N)=S)c1C | inconclusive [cytotoxic, single point] | 
19 | CCN(Cc1ccccc1)c1ccc(/C=N/N=C(N)N)cc1 | active: 18.4 µM | 
20 | S=c1[nH]nc(-c2ccccc2)n1/N=C/c1cccs1 | inconclusive [cytotoxic, single point] | 
21 | CCCCNc1cc(C)nc(NCc2ccccc2)n1 | active: 25.9 µM | 
22 | CC(=O)c1cc(CN2C(=O)CCC2=O)cs1 | inactive | 
23 | O=C(N/N=C/c1ccccc1OCc1ccccc1)c1cccs1 | inactive | 
24 | Cc1cccc2sc(N(CCN(C)C)C(=O)/C=C/c3cccs3)nc12 | inconclusive [cytotoxic, single point] | 
25 | Cc1cc(C(C)(C)C)oc1C(=O)N(CC(=O)NC1CCCC1)c1ccc(F)cc1 | inconclusive [cytotoxic, single point] | 

Row | Structure (SMILES) | Potency | activity, negative = less viability
26 | CCc1c(-c2ccccc2OC)ncn1Cc1cccc(-c2ccccc2)c1 | active: 14.6 µM | 
27 | Cn1cnc([N+](=O)[O-])c1Sc1ncnc2nc[nH]c12 | active: 4.11 µM | 
28 | CC1(C)C(=O)NCCN1C(=O)c1ccc2nc(Cc3ccccc3F)oc2c1 | inconclusive [cytotoxic, single point] | 
29 | O=C(NNC(=O)c1ccccc1O)c1ccc(S(=O)(=O)Nc2ccccc2F)cc1 | active: 23.1 µM | 
30 | Cc1ccccc1CNC(=O)c1[nH]c(C(F)(F)F)nc1-c1ccccc1 | inactive | 
31 | COCC(=O)Nc1ccc(N2CCOCC2)c(S(=O)(=O)Nc2ccccc2OC)c1 | inactive | 
32 | O=C(CCS(=O)(=O)c1ccccc1)Nc1nnc(-c2ccco2)o1 | inactive | 
33 | COc1cc(/C=C/C(=O)c2ccc(C)cc2)ccc1OCC#N | inconclusive [cytotoxic, single point] | 
34 | CC1=C(C(=O)OCC2CCCO2)C(c2ccc(Cl)cc2)NC(=O)N1 (stereo not drawn) | inactive | 
35 | Cn1cc(S(=O)(=O)N2CCc3ccccc32)cc1C(=O)NC(C)(C)C | inconclusive [cytotoxic, full curve] | 
36 | CC1=C(C(=O)OC(C)C)C(c2ccc(Cl)cc2)n2c(s/c(=C\c3ccc(OCC(=O)O)cc3)c2=O)=N1 (stereo not drawn) | inactive | 
37 | Cc1cccc(C(=O)NN2S(=O)(=O)c3ccccc3S2(=O)=O)c1 | inconclusive [rising, single point] | 
38 | C/C(=N\NC(=O)CCC(=O)NCc1ccccc1)c1ccco1 | inactive | 
39 | CCCN(CCC)Cc1c(C(=O)N/N=C/c2ccc(C)o2)nnn1-c1nonc1N | inconclusive [cytotoxic, single point] | 
40 | CCOC(=O)c1c(-c2ccccc2)nnn1-c1nc(OCC)nc(N2CCCCC2)n1 | inconclusive [cytotoxic, single point] | 
41 | COc1ccc(-c2ccc(C(=O)C3CC3)cc2)cc1 | inconclusive [rising, partial curve] | 
42 | COc1ccc(N(C(=O)/C=C/C(=O)Nc2cc(C)on2)C(C(=O)NC2CCCC2)c2ccccc2C)cc1 (stereo not drawn) | inconclusive [cytotoxic, partial curve] | 
43 | CC(C)OP(=O)(OC(C)C)C1(NS(=O)(=O)c2ccc(Cl)cc2)C=C(Cl)C(=O)C(Cl)=C1 | inconclusive [cytotoxic, single point] | 
44 | CC(C)(C)C1CCC(=NNc2ncc(C(F)(F)F)cc2Cl)CC1 (stereo not drawn) | inconclusive [cytotoxic, single point] | 
45 | O=C(NCc1nc2ccccc2[nH]1)c1ccccc1F |  | inconclusive: 31.3%
46 | O=C(CSc1ccc(-c2cccs2)nn1)N1CCCCCC1 | inactive | 
47 | Cc1ccc(C(=O)N2N=C(c3cccc(NS(C)(=O)=O)c3)CC2c2cccs2)cc1 (stereo not drawn) | inconclusive [cytotoxic, single point] | 
48 | Cc1ccc(S(=O)(=O)Oc2cc(N)c3c(n2)CCC3)cc1 | inconclusive [rising, single point] | 
49 | CSc1ccc(C(=O)C2CCCN(Cc3cccn3-c3cccnc3)C2)cc1 (stereo not drawn) | inconclusive [cytotoxic, partial curve, poor fit] | 
50 | O=C(/C=C/c1cc(Br)ccc1O)c1ccco1 | active: 9.2 µM | 

Row | Structure (SMILES) | Potency | activity, negative = less viability
51 | CCCc1[nH]nc2c1C(c1ccc(Br)s1)C(C#N)=C(N)O2 (stereo not drawn) | inconclusive [cytotoxic, single point] | 
52 | COc1ccc2nc(N/C(N)=N/S(C)(=O)=O)nc(C)c2c1 | inconclusive [rising, single point] | 
53 | CCNc1nc(N)nc(-c2cc(Cl)ccc2O)n1 | active: 16.4 µM | 
54 | COc1cc(C(=O)Nc2ccc(C(=O)c3ccncc3)cc2)cc(OC)c1OC | inconclusive [cytotoxic, single point] | 
55 | CNc1nc(NCC2CCCCC2)c2sccc2n1 | active: 23.1 µM | 
56 | COCCOC(=O)c1c(C)oc2ccc(O)c(CN3CCC(C)CC3)c12 (tested in a mixture with another compound) | inactive | 
57 | N#C/C(=C\c1ccc(-c2ccc(F)cc2)o1)C(=O)Nc1nc(-c2cccs2)cs1 | inconclusive [cytotoxic, single point] | 
58 | Fc1ccc2c(c1)C1OCCCC1C(c1ccccc1)N2 (stereo not drawn) | inconclusive [cytotoxic, single point] | 
59 | NC(=O)C1CCCNC1 (stereo not drawn) |  | inconclusive: 33.2%
60 | CC(=O)c1cc(C(=O)N2CCc3c([nH]c4ccccc34)C2CC(C)C)[nH]n1 (stereo not drawn) | inconclusive [cytotoxic, single point] | 
61 | COc1cc(/C(C)=N/NC(=O)Cc2c(C)[nH][nH]c2=O)ccc1O | inactive | 
62 | NC(=O)C1CCN(c2nc(C3CC3)nc3c2nnn3Cc2ccccc2)CC1 | inconclusive [cytotoxic, single point] | 
63 | O=C(Nc1ccccc1Cc1ccccc1)c1ccccc1NS(=O)(=O)c1ccc(Cl)s1 | active: 16.4 µM | 
64 | Cc1ccccc1NC(=O)CSc1nnc(-c2ccco2)n1N | inactive | 
65 | Cc1ccccc1OCc1nc2ccccc2c(=O)n1/N=C/c1cn[nH]c1-c1ccccc1 | inconclusive [cytotoxic, single point] | 
66 | CCS(=O)(=O)c1nc(S(=O)(=O)c2ccc(Cl)cc2)c(N2CCC3(CC2)OCCO3)s1 | inconclusive [rising, single point] | 
67 | CC(C)N(C(=O)COC(=O)[C@@H]1CC(O)CN1S(=O)(=O)c1ccc(C(C)(C)C)cc1)C(C)C (stereo partly drawn) | inactive | 
68 | CCc1ccc(NC(=O)Nc2cnccn2)cc1 | inactive | 
69 | COC(=O)c1ccc(Oc2ccc3nnc(C)n3n2)cc1 | inactive | 
70 | Cc1[nH]nc2c1C(C1CC=CCC1)C(C#N)=C(N)O2 (stereo not drawn) | inconclusive [cytotoxic, partial curve] | 
71 | O=C(/C=C/c1c(Cl)cccc1Cl)n1cccn1 | inconclusive [cytotoxic, single point] | 
72 | CCOC(=O)Cc1csc(NC(=O)c2ccc(S(=O)(=O)N3CCOCC3)cc2)n1 | inactive | 
73 | Cc1ccc(-c2nc(CS(=O)(=O)CC(=O)NC3CCC(C)CC3)c(C)o2)cc1 (stereo not drawn) | inconclusive [cytotoxic, single point] | 
